The source gives no read counts; variants with many changes may rest on few reads.
B1: CPEB3 Ribozyme (parent)
chain: UAACAGGGGGCCACAGCAGAAGCGUUCACGUCGCAGCCCCUGUCAGAUUCUGGUGAAUCUGCGAAUUCUGCUGUAUAUCUC

Variants of: B1
Assay: self-cleavage, relative activity (ratio to wild type); higher = more cleavage; in vitro, sequencing
Outline: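 After error-prone PCR and barcoding, CPEB3 ribozyme mutant libraries were transcribed with T7 RNA polymerase at 37°C for 5 hours, then given 15 min with DNase I before an EDTA stop, and they cleaved during both steps. Reverse transcription with template switching preceded Illumina sequencing. Relative activity divides a variant's cleaved/total read fraction by the unmutated ribozyme's. At least 5 reads were required per variant, and three batches were averaged.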

| Variant | self-cleavage |
| --- | --- |
| G19C A28G U49C G53U | 0.13 |
| A18U U31C U54A U60C U74C | 0.21 |
| A18U U26A U58C U69C U80A | 0.11 |
| A18U U31C U66A | 0.13 |
| A18U U31G U43A U54A U78C | 0.16 |
| A18U U54C U72C | 0.18 |
| G19A A20U U80A | 0.26 |
| A18U U25A A57G A64G C71U U72C | 0.04 |
| A18U U26C U31C A56G | 0.23 |
| A18U U67A U76C | 0.29 |
| G19A A21U U43C U54C G55U A65G U67A | 0.05 |
| A18U U26C G30A A35U U60A | 0.06 |
| A18U U41C A47G U51A U69C | 0.29 |
| A18U U26C U51A U69C | 0.17 |
| A18U U54C G70C | 0.44 |
| A18U U41G A45U | 0.37 |
| A18U U43G G53A A65G G73A | 0.05 |
| A18U U26C U49A A57G U58G U72C | 0.06 |
| A18U U51A U66C | 0.39 |
| A18U U72G U76C | 0.19 |
| G19A A20U A64C A77C | 0.05 |
| A18U G33U U67C | 0.12 |
| G19A U25C A64U U72A U78C | 0.03 |
| G19C A35U U60C | 0.14 |

| Variant | self-cleavage |
| --- | --- |
| A18U U31C A35U A64U | 0.17 |
| A18U U41C A56G A65U | 0.35 |
| A18U G36U U54A A57U U60C U66C | 0.05 |
| G19A A20G C29U U54A | 0.05 |
| A18U U26A U43C U48C A56G A77G | 0.26 |
| G19A U48C U49A U80C | 0.19 |
| A18U U49A U60C | 0.2 |
| G19C G24A U41C U51A A57G U60C | 0.12 |
| A18U U48C U54C U67C U74A | 0.14 |
| G19A U26C C50A G61A U67C U74A | 0.1 |
| A18U U69A U74C C81G | 1.31 |
| A18U G33C U43C U49C U54G A56G | 0.06 |
| G19C G30U A64G | 0.23 |
| A18U U54C A77U U78C | 0.21 |
| G19A U60C G61C U80C C81U | 0.05 |
| A18U U31A U67C | 0.11 |
| A18U U26A C32U U41C U43C U49C | 0.06 |
| A18U U31C U72G | 0.2 |
| G19A A21U G30C U41C A56G U72C A77G | 0.11 |
| G19A U25C U41C | 0.16 |
| G19C U49A C81A | 0.05 |
| A18U U41C U49C U51A U54A | 0.44 |
| A18U U41C U67C | 0.26 |
| A18U U26C U66C | 0.19 |

| Variant | self-cleavage |
| --- | --- |
| A18U U26C G33A A45G A47C | 0.15 |
| G19A A21U U51A A64G U72A C79U | 0.14 |
| G19A G24A G42A A65G U67C U80C | 0.06 |
| A18U U26C A64G U72A | 0.07 |
| G19A A47G U54A U67C C81A | 0.04 |
| A18U U25A C34G U76C | 0.05 |
| A18U U25C U41C U78C | 0.09 |
| G19A A28G U74C | 0.1 |
| A18U U41C A47G | 0.24 |
| A18U U26C A56U | 0.19 |
| G19A A28C G30A U41A U54G U72C A75U | 0.05 |
| A18U G42A U58C A75G A77G | 0.37 |
| G19C U25A C71A U74C | 0.03 |
| A18U G33U U54C U67A U69A | 0.07 |
| G19A U25C C38A U43C A56G A75U U78C | 0.04 |
| G19A C40G A57G U60G C62A U72C | 0.07 |
| A18U U31C U43C C50U | 0.36 |
| A18U U25C U41A A47G U67C | 0.21 |
| A18U U26C U48C | 0.3 |
| A18U U25C U31A A64G | 0.08 |
| A18U U43C U58A U66A | 0.07 |
| A18U U49G U60A | 0.12 |
| A18U U31A A35C U72A | 0.1 |
| A18U G63A A65G U69C A77U | 0.16 |

| Variant | self-cleavage |
| --- | --- |
| A18U U31C A47G | 0.29 |
| A18U U41A A65G | 0.18 |
| A18U G33A U60C | 0.08 |
| A18U U43C U69C | 0.15 |
| G19A A57U U72C U74C | 0.24 |
| A18U U26A U76C U80A | 0.43 |
| A18U G55U A75G | 0.41 |
| G19C U51A U58C | 0.21 |
| A18U U25C A56G C68A U72A | 0.12 |
| A18U U25A A28G | 0.25 |
| A18U U25C C81A | 0.19 |
| G19C U25A A35C U58C U72C | 0.17 |
| G19A U31C U60C | 0.34 |
| A18U U26C U43C U69A A75C | 1.05 |
| G19A A47U A57C A64U | 0.08 |
| G19A U25C U41C U43A U58C | 0.06 |
| A18U U49C U60C C71G | 0.15 |
| G19A U26C A35U | 0.09 |
| A18U U54C C59A | 0.13 |
| G19A U25A U26C A64G | 0.11 |
| A18U U31A C68U | 0.17 |
| G19A U41A U80C | 0.07 |
| G19C G24A U41C A64G | 0.06 |
| A18U U74A A75G | 0.45 |

| Variant | self-cleavage |
| --- | --- |
| G19A U51A U78C | 0.34 |
| G19A A21G C79A | 0.35 |
| A18U U25C A35U A64G | 0.11 |
| G19C U41G A45G | 0.22 |
| G19A U48C U60A C81A | 0.3 |
| A18U U41A U67A U69A U80C | 0.11 |
| G19C U41A U48C | 0.07 |
| A18U U26C U67C | 0.22 |
| A18U U51C U58A U72A | 0.06 |
| A18U U26A A28U C32A U54C U76G C81U | 0.05 |
| G19C A28U U58C C79A | 0.01 |
| A18U U72A U74C | 0.32 |
| A18U U69A U80C | 1.2 |
| A18U U69A U80A | 1.22 |
| G19A A20G U54A | 0.4 |
| A18U U67A U80A | 0.19 |
| A18U U41A A47G U54C U67A | 0.05 |
| A18U U26C U41C U43C U69C U74C U78G | 0.17 |
| A18U U48C C62G A65U | 0.2 |
| A18U G33A U51C | 0.1 |
| A18U U26A U31C | 0.43 |
| A18U U26C U31C U48C U80G | 0.11 |
| A18U U41A U54C U67C | 0.11 |
| A18U U43C A47G | 0.46 |

| Variant | self-cleavage |
| --- | --- |
| A18U U60C A65G | 0.18 |
| A18U U25A U51A U54A U80C | 0.07 |
| G19C C29A A45G U76C A77G | 0.12 |
| G19A U31A U66A | 0.11 |
| A18U U58A U78C | 0.21 |
| A18U U31C U54C A56G | 0.28 |
| A18U U31C U43A | 0.24 |
| A18U U26A U43C U51C U69A U72C | 0.26 |
| G19A A21G A47G U69A | 0.08 |
| A18U U72A U78C | 0.22 |
| G19A A28G U43A A65G U80C | 0.17 |
| A18U G36A U48C A64U | 0.16 |
| G19C U41G A45G A56U | 0.23 |
| A18U U26A C29U U43A | 0.29 |
| A18U U26C U69A C81U | 0.47 |
| A18U U25C U26C A28U | 0.04 |
| A18U U31C C39U C62U A75G | 0.07 |
| A18U U31A U41A A56G A75G | 0.28 |
| A18U U25C A28C | 0.31 |
| A18U U31A U41A U54C U74C | 0.11 |
| G19A A64G U78C | 0.4 |
| A18U U43A U49C | 0.39 |
| G19A U25A C29U A77G | 0.18 |
| A18U U26A A45U U80C | 0.29 |

| Variant | self-cleavage |
| --- | --- |
| G19C A20U U51C G63C C71A | 0.08 |
| G19C C37U A57G U66G A77U | 0.07 |
| G19A A28G C37G U41C U72C | 0.02 |
| G19A U43C G46U A64G U78C | 0.17 |
| G19C U31A G63U U78C U80C | 0.16 |
| A18U U26C A45U A65G A77G | 0.09 |
| A18U G33U U54C A77U U80C | 0.1 |
| A18U U31C A35C U60A U78C | 0.08 |
| A18U U49C U54A | 0.23 |
| A18U U26C G42A A65U U80C | 0.06 |
| G19A U25C U41C U54A G63A U78C | 0.1 |
| G19A U26C U41G A65G A77C | 0.11 |
| A18U U41G U54A A57G U58G A64U C81A | 0.1 |
| A18U U26C G70A C71U | 0.19 |
| G19A A20U U48G | 0.27 |
| A18U G33C U43A U69C | 0.08 |
| A18U U25A U31C A57G U66C U72C A77G | 0 |
| A18U U31A A77G | 0.08 |
| G19C A47G U54C A57G U60C | 0.23 |
| A18U U26A U74A | 0.52 |
| G19C U49A A75U U78A | 0.09 |
| G19C U25C G36A U51G U60A A64G | 0.08 |
| A18U U25C U72A G73A | 0.22 |
